Laboratory results: the DeepSol protein solubility set

Test: soluble on expression in E. coli; label from the status in PepcDB or PDB records

Sequence | soluble on expression in E. coli
PFGNTHNKYKLNYKSEEEYPDLSKHNNHMAKVLTPDLYKKLRDKETPSGFTLDDVIQTGVDNPGHPFIMTVGCVAGDEESYTVFKDLFDPIIQDRHGGFKPTDKHKTDLNHENLKGGDDLDPHYVLSSRVRTGKSIKGYTLPPHCSRGERRAVEKLSVEALNSLTGEFKGKYYPLKSMTEQEQQQLIDDHFLFDKPVSPLLLASGMARDWPDARGIWHNDNKSFLVWVNEEDHLRVISMEKGGNMKEVFRRFCVGLQKIEEIFKKAGHPFMWNEHLGYVLTCPSNLGTGLRGGVHVKLAHLSKHPKFEEILTRLRLQKRGTGGVDTAAVGSVFDISNADRLGSSEVEQVQLVVDGVKLMVEMEKKLEKGQSIDDMIPAQK | soluble
MVAITAAASRLGTSAFSDAPPVELRANWSEEDLETVIRAVYRQVLGNDYVMASERLVSAESLLRNGKITVREFVRAVAKSELYKEKFLYGNFQTRVIELNYKHLLGRAPYDESEVIFHLDLYENEGFDADIDSYIDSPEYTNSFGDWVVPYYRGFNTQPGLEHHHHHH | soluble
MSLKGVLFDLDGVITDTAEFHYHAWKKLGNEIGISIDRVFNEQLKGVSREDSLQLLLKYGKKEGTFSSEEFAQLAQRKNDYYLEMIQAITPEDVYPGILSLLTELREANIKIALASASKNGPFLLEKMQLTPLFDAIANPADVQAGKPAPDIFILAAKEIDLTPAECLGIEDAKAGIQAILASGAQPVGVGRKEELGEGLPIVPETSALTFDYLKKVWLDHEGHHHHHH | soluble
ASEKRPFMCAYPGCNKRYFKLSHLQMHSRKHTGEKPYQCDFKDCERRFSRSDQLKRHQRRHTGVKPFQCKTCQRKFSRSDHLKTHTRTHTGEKPFSCRWPSCQKKFARSDELVRHHNMH | soluble
